# Hit rate of the full screen: of about 350,000 compounds, about 9,900 (2.8%) were called active. The shares of active, inactive and inconclusive entries below differ from those in the screen. The call rests on the fitted dose curve; in most records, active means well fitted activation curve with a large enough effect; inconclusive means small, poorly fitted or top-dose-only effect; inactive means no such curve, though single readings can be large or run the other way. No potency is given beside an inconclusive call; the fits are too rough.
# Assay: A quantitative high throughput screen for small molecules that induce DNA re-replication in MCF 10a normal breast cells. Further: nearly all actives have a fitted effect of over 50% in size.
# Settings: MCF 10A DNA re-replication, Hoechst nuclear intensity, 48 h; series mostly up to 46.1 µM
# Description: H Molecular Libraries Probe Production Network [MLPCN]
# NIH Chemical Genomics Center [NCGC]
# Assay Provider: Melvin DePamphilis, NICHD, NIH
# Eukaryotic cells normally restrict genome duplication to once per cell division. When this process is aberrant, DNA re-replication occurs when cells reinitiate DNA replication before the first round of replication is complete. DNA re-replication induces the DNA damage response, arrests cell proliferation, and triggers apoptosis. The cell cycle components cyclin A, Cdt-1, Cdc6 and geminin are critical regulators of this process and their misregulation results in DNA re-replication in normal and cancer cells. To identify compounds that induce re-replication in normal cells, an image-based assay was used to measure DNA content of nuclei, as detected by the fluorescent DNA binding dye, Hoechst. Cell nuclei were imaged by a fluorescence scanning plate imager and compounds that induce DNA re-replication were identified by the increase of nuclei with elevated fluorescence intensity
# For screening, 250 cells in 5 uL/well were dispensed into black clear 1536-well plates (Aurora) using a solenoid-based dispenser. Following transfer of 23 nL compound or DMSO vehicle by a pin tool, the plates were incubated 48 hr at 37 C and 5% CO2. After addition of 1 uL/well Hoescht stain, the plates were incubated 40 min at 37 C, 5% CO2 and total intensity of fluorescent objects (nuclei) were enumerated by an Acumen Explorer Ex3 (TTP LabTech) fluorescence scanning plate imager (405 nm excitation, 500-530 nm emission).
# Keywords: NIH Roadmap, MLPCN, MLI, MLSMR, qHTS, NCGC, DNA replication, cancer
# Potency means the concentration at half of the fitted maximal effect; tags describe the fitted curve by direction and shape.
row,SMILES,Potency
1,N#Cc1c(Cn2cncn2)nc(=O)n(-c2ccc(Cl)cc2)c1N,"inconclusive [activator, partial curve, poor fit]"
2,COc1ccc(-n2c(C)ccc2-c2ccccc2)cn1,"inconclusive [activator, partial curve]"
3,O=C(CCl)N1CCN(C(=O)C2COc3ccccc3O2)CC1 (stereo unspecified),"inconclusive [activator, single point]"
4,O=C1C(=O)N(Cc2ccccc2)C(=O)N1CCN1C(=O)c2ccccc2C1=O,"inconclusive [activator, single point]"
5,CCOC(=O)c1c(C)c(C(=O)N2CCc3ccccc3C2)c(C)n1CC,"inconclusive [activator, single point]"
6,O=C(OCc1cc([N+](=O)[O-])cc2c1OCOC2)c1ccccn1,inactive
7,Cc1ccc(S(=O)(=O)Nc2cccc(Cl)c2)cc1NC(=O)c1cccnc1,"inconclusive [activator, single point]"
8,Cc1cccc(C)c1-n1c(C)cc(/C=N/NC(N)=S)c1C,"inconclusive [activator, single point]"
9,COc1cc(NC(=O)c2cccs2)c(C(=O)OCC(=O)NCc2ccccc2)cc1OC,"inconclusive [activator, partial curve]"
10,N#Cc1c(Nc2ccccc2)sc(C(=O)c2ccc(F)cc2)c1N,"inconclusive [activator, single point]"
11,O=C(NC(=S)Nc1ccccc1O)c1ccccc1Cl,"inconclusive [activator, partial curve, poor fit]"
12,COc1ccc(-c2csc(N(CCCN3CCOCC3)C(=O)c3ccco3)n2)cc1,"inconclusive [activator, single point]"
13,CC1(C)Cc2c(cnn2-c2ccccc2)C(=O)/C1=N\NC(=O)c1ccncc1,inactive
14,COC(=O)[C@@]1(Cc2ccccc2)[C@H]2C(=O)N(C)C(=O)[C@H]2[C@H]2CN=C(SCc3ccc(Cl)cc3)N21,"inconclusive [activator, partial curve, poor fit]"
15,COc1ccc(C(=O)C(CN2CCCC2)c2ccccc2)cc1 (stereo unspecified),"inconclusive [activator, partial curve, poor fit]"
16,COc1ccccc1/C=C\C=N\n1c(-c2ccc(Cl)cc2Cl)n[nH]c1=S,"inconclusive [activator, single point]"
17,Cc1cc(C(F)(F)F)c(C#N)c(=O)[nH]1,inactive
18,COC(=O)CN(c1cc(Cl)ccc1OC)S(=O)(=O)c1ccc(C)cc1,"inconclusive [activator, single point]"
19,O=C(Nc1nnc(CCS(=O)(=O)c2ccc3ccccc3c2)s1)c1ccc([N+](=O)[O-])cc1,inactive
20,O=C(Cn1c(=O)n(CCC(=O)N2CCCCC2)c(=O)c2sccc21)NCc1ccccc1,inactive
21,CCCCCCCCCCCCCCCC[N+](C)(C)Cc1ccccc1,active: 13.3 µM
22,CCN1C(=O)[C@H]2[C@@H](c3ccc(-c4ccc(C(C)=O)cc4)cc3)N3CCCC[C@@]3(C(=O)OC)[C@H]2C1=O,inactive

row,SMILES,Potency
1,O=C(Nc1nnc(SCc2cccc3ccccc23)s1)C1COc2ccccc2O1 (stereo unspecified),"inconclusive [activator, partial curve, poor fit]"
2,C=CCn1c(=O)[nH]c2cc(C(=O)N3CCN(c4cccc(Cl)c4)CC3)ccc2c1=O,inactive
3,COc1ccc(CNC(=O)CN2CCN(c3cccc(C)c3C)CC2)cc1,"inconclusive [activator, partial curve, poor fit]"
4,CC(=O)c1ccc(N(CC(=O)NC2CCCCC2)C(=O)CNC(=O)c2ccco2)cc1,inactive
5,Cn1c(=O)n(C)c2cc(/C=N/NC(=S)NCc3ccccc3)ccc21,"inconclusive [activator, single point]"
6,Cc1ccccc1NS(=O)(=O)c1cc(C(=O)NCCC2=CCCCC2)ccc1C,"inconclusive [activator, single point]"
7,COc1ccc(OC)c(COC(=O)c2cccc(S(=O)(=O)N3CCCCC3)c2)c1,"inconclusive [activator, full curve, poor fit]"
8,COc1cccc(-c2nc(-c3ccc(NC(=O)c4cccs4)cc3)no2)c1,"inconclusive [activator, single point]"
9,S=C(Nc1ccc(Oc2ccccc2)cc1)NC1CCCCC1,"inconclusive [activator, partial curve, poor fit]"
10,COCCN(Cc1nc2ccccc2c(=O)[nH]1)C(=O)COc1ccccc1-c1ccccc1,"inconclusive [activator, partial curve, poor fit]"
11,N#Cc1ccccc1NC(=O)COC(=O)CN1C(=O)C2CCCCC2C1=O (stereo unspecified),inactive
12,COc1cccc2oc3cc(C#CC4(O)CCCCC4)ccc3c(=O)c12,"inconclusive [activator, single point]"
13,CCOC(=O)c1nnn(-c2nonc2N)c1-c1cccc2ccccc12,"inconclusive [activator, single point]"
14,CC(C)n1cc(/C=C2/SC(=O)N(CC(=O)N3CCCC3)C2=O)c2ccccc21,"inconclusive [activator, single point]"
15,O=C(Nc1sc2c(c1C(=O)O)CCC2)c1cccc(Cl)c1,"inconclusive [activator, single point]"
16,O=c1c2ccccc2nc(CSc2ncnc3nc[nH]c23)n1-c1cccc(C(F)(F)F)c1,"inconclusive [activator, single point]"
17,CCN(CC)S(=O)(=O)c1cc(C(=O)OCC(=O)Nc2ccc(-c3nc4ccc(C)cc4s3)cc2)ccc1F,inactive
18,COc1ccc(N(CC(=O)Nc2ccc3c(c2)OCCO3)S(=O)(=O)c2c(C)noc2C)cc1,"inconclusive [activator, partial curve, poor fit]"
19,O=C(NCCSCc1ccco1)Nc1cc(Cl)cc(Cl)c1,"inconclusive [activator, single point]"
20,CC1(C)C2CC=C(/C=N/NC(=O)c3ccccc3Br)C1C2 (stereo unspecified),"inconclusive [activator, partial curve, poor fit]"
21,CCOC(=O)N1CCN(C(=O)c2cc(-c3ccncc3)nc3ccccc23)CC1,"inconclusive [activator, single point]"
22,O=C(Nc1nc2c(s1)CCc1ccccc1-2)c1cccs1,"inconclusive [activator, partial curve, poor fit]"

row,SMILES,Potency
1,c1ccc(-c2noc(CN3CCCC(OCc4ccccn4)C3)n2)cc1 (stereo unspecified),inactive
2,CCOC(=O)C1(Cc2cccc(Cl)c2)CCCN(C(=O)c2cc(C(C)C)nn2C)C1 (stereo unspecified),"inconclusive [activator, single point]"
3,CCOC(=O)c1ccc(NC(=S)N(Cc2cccnc2)Cc2ccco2)cc1,inactive
4,CCCCn1c(N)c(N(CC(C)C)C(=O)C2CC(=O)N(Cc3ccco3)C2)c(=O)[nH]c1=O (stereo unspecified),inactive
5,Cc1ccc(C2=NN3C(=O)c4ccccc4C3C2)cc1 (stereo unspecified),inactive
6,O=C(Nc1ccc(Cl)cc1Cl)c1cccc(N2C(=O)C=CC2=O)c1,active: 13 µM
7,N#Cc1ccc(S(=O)(=O)N2CCCN(c3ccc(C(F)(F)F)cn3)CC2)cc1,"inconclusive [activator, partial curve]"
8,O=C(CN1CCOCC1)NCc1ccccc1Cl,inactive
9,Cc1ccccc1N1C(=O)CC(Sc2nnc(-c3ccccc3)o2)C1=O (stereo unspecified),"inconclusive [activator, single point]"
10,CCC1(CC)NC(=O)N(CC(=O)Nc2ccc(-n3cnnn3)cc2)C1=O,inactive
11,CC1CCN(CCCNC(=O)c2cc3sccc3n2C)CC1,inactive
12,Cc1ccnc(NC(=O)Nc2ccc(Br)cc2Cl)c1,"inconclusive [activator, single point]"
13,C[C@H]1CC[C@H]2C(=O)N3[C@H](c4ccccc4Br)[C@@H](C)CC[C@H]3C(=O)N2[C@@H]1c1ccccc1Br,"inconclusive [activator, partial curve, poor fit]"
14,COc1ccc(OC)c(N=c2ssnc2Cl)c1,"inconclusive [activator, single point]"
15,CCOc1ccc(NS(=O)(=O)c2ccc(NC(=O)[C@@H]3CCCC[C@@H]3C(=O)O)cc2)cc1,inactive
16,C/C(=N/NC(=O)c1cc(C2CC2)[nH]n1)c1cccs1,"inconclusive [activator, single point]"
17,O=C(O)c1ccccc1-c1ccccc1C(=O)Nc1cccc(-c2nc3ccccc3o2)c1,"inconclusive [activator, single point]"
18,COC(=O)C1=C(C)N(c2cccc(Cl)c2)C(=O)C1,"inconclusive [activator, partial curve]"
19,COC(=O)c1c(NC(NC(=O)C(C)C)C(Cl)(Cl)Cl)sc2c1CCC2 (stereo unspecified),"inconclusive [activator, single point]"
20,COc1cc2c(cc1OC)C(C)N(C(=O)/C=C/c1cc(OC)c(OC)c(OC)c1)CC2 (stereo unspecified),"inconclusive [activator, full curve, poor fit]"
21,CN(c1ccc(C(=O)N2CCN(c3ccccc3F)CC2)cc1)S(=O)(=O)c1ccccc1,"inconclusive [activator, single point]"
22,CSc1ccc(CN(C)CC(=O)NC(=O)NC(C)(C)C)cc1,inactive
